# “And” between values parts separate entries of the source, which are not always exact repeats. Identical values can stand only once. The campaign covered roughly 420,000 compounds. About 50,000 (12%) were called active. This list was built around the results that the source calls inconclusive (neither active nor inactive); the mix of calls is not that of the screen. Calls follow the shape of the dose curve; as a rule, active = well fitted inhibition curve with a large enough effect; inconclusive = small, poorly fitted or top-dose-only effect; inactive = flat fitted curve, though single readings scatter. Where the call is inconclusive, the potency comes from a doubtful curve fit.
# Assay: qHTS for Inhibitors of human tyrosyl-DNA phosphodiesterase 1 (TDP1): qHTS in cells in presence of CPT; also: nearly all actives have a fitted effect of over 55% in size
# Settings: chicken DT40 Tdp1-/-;hTDP1 cells + 20 nM CPT, ATP luminescence, 48 h; activity change, negative = growth inhibition: at 46.2 µM (top of the series) unless noted
# In short: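 Chicken DT40 Tdp1-/- cells complemented with human TDP1, 400 cells/well, exposed to compounds plus 20 nM camptothecin for at least 48 h at 37 C; viability read as ATP content by CellTiter-Glo luminescence.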
# % is scaled to controls: 0 for no effect and ±100 for the full control effect; potency is read from the fitted curve at half-maximal effect; tags tell the direction and shape of the fitted curve.
Compound,Potency,"activity change, negative = growth inhibition"
COc1ccc(C(=O)Nc2ccccc2C(=O)NC(C)C)cc1OC,"inconclusive: 29.1 µM [inhibitor, single point]",–
CN1C(CCl)Nc2cc(Cl)c(S(N)(=O)=O)cc2S1(=O)=O (stereo unspecified),"inconclusive: 18.8 µM [inhibitor, single point] and inconclusive: 9.2 µM [inhibitor, partial curve]",–
CNC(=S)Nc1ccc(Cc2ccncc2)cc1,inactive,–
O=C(NCc1nc2ccccc2[nH]1)C1=C[C@@H](c2csc3ccccc23)C[C@@H](OCc2ccc(CO)cc2)O1,"inconclusive: 25.9 µM [inhibitor, single point]",–
CCCc1nnc(N2C(=O)c3oc4ccc(F)cc4c(=O)c3C2c2ccc(C(=O)OC)cc2)s1 (stereo unspecified),inactive,–
CCOC(=O)[C@H]1[C@H]2COc3cc(OC)ccc3[C@@H]2N2C(=O)c3cc(F)c(F)cc3NC(=O)[C@@]12C,"inconclusive: 29.1 µM [inhibitor, single point]",–
CCCCNC(=O)Cn1c(=O)c2c(ncn2CC)n(Cc2ccccc2)c1=O,inactive,–
CCOC(=O)C1=C(C)N=c2s/c(=C/c3ccc(OCC(=O)O)cc3)c(=O)n2C1c1ccc(F)cc1 (stereo unspecified),inactive,–
Cc1noc(C)c1-c1ccc(C(=O)NCCc2ccccc2)c2occc12,"inconclusive: 23.1 µM [inhibitor, single point]",–
CCCn1cnc2c(SCc3ccc(Cl)cc3)nc(N)nc21,"inconclusive: 16.4 µM [inhibitor, single point]",–
COc1nc(OC)nc(Oc2ccc(Cl)cc2[N+](=O)[O-])n1,inactive,–
Oc1ccccc1-c1nc(N2CCCC2)c2ccccc2n1,inactive,–
O=C(/C=C/c1ccc(N2CCCCC2)c([N+](=O)[O-])c1)c1ccc(O)cc1,"inconclusive: 29.1 µM [inhibitor, single point]",–
Nc1cc(S(=O)(=O)Nc2ccc(Cl)cc2)ccc1N1CCOCC1,active: 7.31 µM,–
O=C(NCc1ccccc1)/C(=C/c1ccc([N+](=O)[O-])cc1)NC(=O)c1ccco1,inactive,–
CC1(C(=O)Nc2cccc(OC(F)(F)F)c2)Cc2c(-c3ccc(C(N)=O)cc3)ccnc2O1 (stereo unspecified),"inconclusive: 29.1 µM [inhibitor, single point]",–
O=C(/C(C=Nc1ccc(Br)cc1)=C(/O)c1ccco1)C(F)(F)F,inactive,–
CCN(CC)S(=O)(=O)c1cccc(C(=O)N/N=C(\C)c2ccc(O)cc2O)c1,active: 4.61 µM,–
Cc1cc(C)c2c(N)c(C(=O)NCC3CCCCC3)sc2n1,"inconclusive: 29.1 µM [inhibitor, single point]",–
O=C1Nc2ccc(Br)cc2C1=Nc1cccnc1,active: 11.6 µM,–
Brc1cccc[n+]1CCC[n+]1ccccc1Br,inactive,–
O=C(Nc1ccccc1N1CCCC1)c1ccc([N+](=O)[O-])o1,active: 23.1 µM,–
COc1cc(NC(=O)c2cccc3c2C(=O)N(Cc2cccnc2)C3)cc(OC)c1OC,"inconclusive: 23.1 µM [inhibitor, single point]",–
CCCNc1c(NS(=O)(=O)c2ccc(C)cc2C)c(=O)oc2ccccc12,inactive,–

Compound,Potency,"activity change, negative = growth inhibition"
CCC(=O)N1CCN(c2cc(N3CCN(C)CC3)c(F)cc2[N+](=O)[O-])CC1,inactive,–
C[C@@H](NCCc1ccc(O)cc1)[C@@H](O)c1ccc(O)cc1,inactive,–
COC(=O)c1ccsc1NC(=O)CN1CCN(Cc2ccc3c(c2)OCO3)CC1,"inconclusive: 29.1 µM [inhibitor, single point]",–
C[C@H](O)[C@@H]1C(=O)N2CCc3c([nH]c4ccccc34)[C@@H]2C[C@@H]1N(C)Cc1ccc(Cl)cc1,"inconclusive: 20.6 µM [inhibitor, single point]",–
CC(C)(C)C(=O)Nc1ccccc1N1CCN(C(=O)c2ccc(Cl)cc2)CC1,"inconclusive: 18.4 µM [inhibitor, single point]",–
COc1cc2ccccc2cc1C(=O)N1CCN(c2nc3c(C)cc(C)cc3s2)CC1,"inconclusive: 29.1 µM [inhibitor, single point]",–
CCOc1cc(N2CCOCC2)c(OCC)cc1NC(=O)c1cccc(N(C)C)c1,"inconclusive: 29.1 µM [inhibitor, single point]",–
O=C1OC(N2C(=O)CC[C@H]2C(=O)Nc2ccc3c(c2)OCO3)c2ccccc21 (stereo partly specified),inactive,–
Cc1ccc(NC(=O)c2cnn(-c3ccccc3)c2NC(=O)c2ccco2)cc1C,inactive,–
Cc1cccc(Nc2ncnc3ccc(Br)cc23)c1,"inconclusive: 16.4 µM [inhibitor, single point]",–
O=C(NC1CCCCC1)N(Cc1nc2ccccc2c(=O)[nH]1)C1CCCC1,inactive,–
Cc1cccc(C(=O)N2CCC(Cc3ccccc3)CC2)c1[N+](=O)[O-],active: 8.2 µM,–
CCOc1ccc(-n2cc(C(=O)Nc3ccccc3OCC)c3cc(OC)c(OC)cc3c2=O)cc1,"inconclusive: 6.51 µM [inhibitor, partial curve]",–
CCCNC(=O)C1(C)CCN(C(=O)c2cc(F)cc(F)c2)C1 (stereo unspecified),inactive,–
CC1CCN(c2nnc(-n3cccc3CNc3cccc(F)c3)s2)CC1,"inconclusive: 23.1 µM [inhibitor, single point]",–
CCOC(=O)C1(C)CCCN(C(=O)C(c2ccccc2)c2ccccc2)C1 (stereo unspecified),"inconclusive: 29.1 µM [inhibitor, single point]",–
CNc1nc(-c2cccc(NS(C)(=O)=O)c2)nc2ccccc12,inactive,–
CC1(C)N=C(N)N=C(N)N1c1ccc(Cl)cc1,"inconclusive: 2.66 µM [inhibitor, partial curve, poor fit]",–
CC(=O)C(=Nc1ccc(Cl)cc1Cl)NNc1cccc(Cl)c1,"inconclusive: 20.6 µM [inhibitor, single point]",–
CNC(=O)c1cc(Oc2ccc(NC(=O)c3[nH]c(-c4ccccc4)c4c3C(=O)N(C)C4=O)cc2)ccn1,"inconclusive: 11.6 µM [inhibitor, partial curve]",–
O=C(N/N=C/c1ccc2c(c1)OCO2)c1ccc2c(c1)OCCO2,active: 16.4 µM,–
Cc1cccc(NC(=O)C2CCN(S(=O)(=O)c3cccc4nsnc34)CC2)c1,inactive,–
Fc1cccc(Cc2c(-c3ccccc3)nc3ccc(Br)cn23)c1,"inconclusive: 29.1 µM [inhibitor, single point]",–
CCn1nc(NS(=O)(=O)c2cccc3nonc23)c2cc3ccc(C)cc3nc21,inactive,–

Compound,Potency,"activity change, negative = growth inhibition"
CCC(C)Sc1ccc([C@@H]2[C@@H]3C(=O)N(C)C(=O)[C@@H]3[C@]3(C(=O)OC)CCCCN23)cc1OC (stereo partly specified),"inconclusive: 18.4 µM [inhibitor, single point]",–
O=C1[C@H]2[C@@H](c3ccccc3)N[C@]3(CCCN(Cc4ccc(C(F)(F)F)cc4)C3=O)[C@H]2C(=O)N1Cc1ccccc1,active: 18.4 µM,–
Cc1ccc(OCCN(C)C(=O)C2CCC(=O)N(CCCN3CCOCC3)C2)cc1 (stereo unspecified),inactive,–
CC(c1ccco1)N(C(=O)Nc1ccccc1)C1CCCCC1 (stereo unspecified),"inconclusive: 16.4 µM [inhibitor, single point]",–
O=C(Cn1cc([N+](=O)[O-])cn1)Nc1nc2ccccc2s1,"inconclusive: 9.2 µM [inhibitor, partial curve, poor fit]",–
CC(C)c1ccc(NC(=O)C2CC(=O)N(C3CCCC3)C2)cc1 (stereo unspecified),inactive,–
Cc1ccc(Cn2c(=N)c(C(=O)NCCN3CCOCC3)cc3c(=O)n4ccccc4nc32)cc1,"inconclusive: 23.1 µM [inhibitor, single point]",–
COc1ccc(-c2ccc(CN3C(C)C(=O)N(Cc4cn(CCC5OCCO5)nn4)CCS3(=O)=O)cc2)cc1 (stereo unspecified),active: 9.2 µM,–
O=C(O)c1ccccc1-c1ccccc1C(=O)Nc1ccc2c(c1)oc(=O)c1ccccc12,"inconclusive: 18.4 µM [inhibitor, single point]",–
Cc1nn(Cc2ccccc2Cl)c(C)c1NC(=O)CCCn1nc([N+](=O)[O-])c(Cl)c1C,"inconclusive: 25.9 µM [inhibitor, single point]",–
CCc1ccccc1NC(=O)N1CCN(c2nnc(C)c3c(C)n(-c4ccccc4)nc23)CC1,"inconclusive: 29.1 µM [inhibitor, single point]",–
CCOC(=O)c1nc(NCc2ccccc2F)c2ccccc2n1,"inconclusive: 23.1 µM [inhibitor, partial curve, poor fit]",–
Nc1nc2c3ccccc3nc(C3CC3)n2n1,–,inconclusive: -34% [inhibitor]
CC1CCN(C(=O)Cn2cc(SCc3cccc(F)c3)c3ccccc32)CC1,"inconclusive: 29.1 µM [inhibitor, single point]",–
COc1ccc(NC(=O)c2cc(C3CCCCN3C(=O)c3ccccc3)on2)c(C)c1 (stereo unspecified),active: 18.4 µM,–
O=C1NC(=O)C2(CCCCC2)N1,inactive,–
O=C(Cc1ccc(Cl)cc1)Nc1ccccc1Sc1ccccc1,"inconclusive: 20.6 µM [inhibitor, single point]",–
COc1ccc(CNC(=O)CCc2cn(Cc3cc(C)ccc3C)c3ccccc23)cc1OC,active: 4.61 µM,–
CCCCCOc1ccc(NC(=O)c2cc(SC)ccc2Cl)cc1,active: 23.1 µM,–
CCN1C(=O)[C@H]2[C@@H](c3ccc(-c4cccc(Cl)c4)cc3)N3CCCC[C@@]3(C(=O)OC)[C@H]2C1=O,"inconclusive: 29.1 µM [inhibitor, single point]",–
Cc1c(CNCCc2ccccc2Cl)c(C(=O)O)c(C)n1-c1ccccc1,inactive,–
CCOc1cc(/C=C2\SC(N3CCCCC3)=NC2=O)ccc1O,"inconclusive: 16.4 µM [inhibitor, single point]",–
COc1ccc(-c2nc3cc(C)ccn3c2NC(=O)c2c(F)cccc2Cl)cc1,inactive,–
